Assay results: PubChem BioAssay AID1468 (National Center for Advancing Translational Sciences (NCATS), 2008)
Among all 280,000 compounds or so, about 1,100 (0.39%) were called active. The inconclusive results got no clear call from the source; some entries with a clear call stand among them for comparison. The call rests on the fitted dose curve; in most records, active means well fitted inhibition curve with a large enough effect; inconclusive means small, poorly fitted or top-dose-only effect, or effect the other way; inactive means flat fitted curve, though single readings scatter. Potencies of inconclusive entries are left out as doubtful fits.

target: Microtubule-associated protein tau (Homo sapiens) (UniProt P10636); test: qHTS for Inhibitors of Tau Fibril Formation, Fluorescence Polarization; details: K18 P301L tau heparin fibrillization, Alexa594 FP, 6 h; series mostly up to 57.7 µM; further: nearly all actives have a fitted effect of over 55% in size
How it was run: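 Compound effects on tau fibrillization are measured by Alexa 594 fluorescence polarization (ex 555, em 632 nm). K18 P301L tau is used at 15 uM with 0.24 uM labeled tracer, and 20 uM heparin induces aggregation over 6 hr at 37 C.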
Potency means the concentration at half of the fitted maximal effect; tags describe the fitted curve by direction and shape.

Sequence of UniProt P10636 (P10636 whole entry, looked up): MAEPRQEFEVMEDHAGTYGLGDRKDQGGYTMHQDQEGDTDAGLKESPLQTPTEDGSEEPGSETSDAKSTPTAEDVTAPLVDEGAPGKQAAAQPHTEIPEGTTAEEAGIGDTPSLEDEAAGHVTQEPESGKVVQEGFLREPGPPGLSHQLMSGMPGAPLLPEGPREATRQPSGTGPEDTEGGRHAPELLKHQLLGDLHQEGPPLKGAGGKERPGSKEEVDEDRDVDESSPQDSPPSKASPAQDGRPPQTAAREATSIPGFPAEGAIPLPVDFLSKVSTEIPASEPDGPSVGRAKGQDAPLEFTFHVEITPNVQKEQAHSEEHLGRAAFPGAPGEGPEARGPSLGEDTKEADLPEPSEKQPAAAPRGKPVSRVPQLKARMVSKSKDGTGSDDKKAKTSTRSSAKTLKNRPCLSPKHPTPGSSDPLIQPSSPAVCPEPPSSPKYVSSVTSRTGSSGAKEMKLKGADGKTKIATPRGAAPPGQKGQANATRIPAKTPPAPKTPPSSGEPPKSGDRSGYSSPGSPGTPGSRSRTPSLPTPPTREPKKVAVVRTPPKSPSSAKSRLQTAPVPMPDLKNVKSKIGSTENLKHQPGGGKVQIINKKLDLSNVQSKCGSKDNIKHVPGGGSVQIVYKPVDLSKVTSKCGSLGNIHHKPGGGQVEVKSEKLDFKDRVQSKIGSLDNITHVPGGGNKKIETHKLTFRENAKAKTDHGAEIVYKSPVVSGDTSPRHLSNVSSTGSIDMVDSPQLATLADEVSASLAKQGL

| Compound | Potency |
| --- | --- |
| COc1ccc(NC(=O)CSc2ncc3c(n2)-c2ccccc2N(Cc2ccc(C)cc2)S3(=O)=O)cc1Cl | inconclusive [inhibitor, partial curve] |
| COC(=O)c1ccc(C2C(C#N)=C(C)NC3=C2C(=O)CC(C)(C)C3)cc1 (configuration not stated) | inactive |
| O=C(COc1cccc(Cl)c1Cl)Nc1ccc2c(c1)CCC2 | inconclusive [inhibitor, single point] |
| Cc1cn2c(nc(=O)c3cccnc32)s1 | inactive |
| O=C(COC(=O)c1ccccc1Br)Nc1ccc(F)cc1 | inconclusive [inhibitor, single point] |
| O=C(CSc1nc2ccccc2[nH]1)Nc1ccccc1F | inconclusive [inhibitor, single point] |
| CCCCCCC(=O)Nc1ccc2nc3c(=O)n(C)c(=O)n(C)c3nc2c1C | inactive |
| O=C(NNc1ccccc1Cl)C(O)(c1cccc(C(F)(F)F)c1)c1cccc(C(F)(F)F)c1 | inconclusive [inhibitor, partial curve] |
| CCOC(=O)c1ccc(N2C(=O)c3n[nH]c(-c4ccco4)c3C2c2ccc(C(=O)OC)cc2)cc1 (configuration not stated) | inconclusive [inhibitor, partial curve] |
| N#CC1=C2SCN(Cc3ccccc3)CN2C(=O)CC1c1ccc2c(c1)OCO2 (configuration not stated) | inconclusive [inhibitor, partial curve] |
| CC(=O)Nc1cccc(-c2nc(-c3ccccc3)no2)c1 | inconclusive [inhibitor, single point] |
| NC(=O)c1c(N)sc2c1CCCC2 | inconclusive [inhibitor, partial curve] |
| Nc1c(N2CCCCC2)c(=O)[nH]c(=O)n1-c1ccccc1 | inactive |
| CCN(CC(O)CON=C1c2ccccc2-c2ccccc21)S(=O)(=O)c1ccc(C)cc1 (configuration not stated) | inconclusive [inhibitor, partial curve, poor fit] |
| S=c1[nH]nc(-c2ccncc2)n1/N=C/C=C/c1ccccc1 | inactive |
| O=C(c1ccco1)n1c(=S)nc2ccccn21 | inconclusive [inhibitor, partial curve] |
| CCCCOc1ccccc1C1CC(=O)Nc2ccc3ccccc3c21 (configuration not stated) | inactive |
| CN(C)c1ccc(-c2nnn(CC(=O)Nc3ccccc3N3CCOCC3)n2)cc1 | inactive |
| Cc1cc(Cl)ccc1-n1c(CCC(=O)O)ccc1-c1cccs1 | inactive |
| C=CCc1cccc(/C=N/n2cnnc2)c1O | inactive |
| Cc1ccc2nc(CSc3nnc(-c4ccncc4)n3C)cc(=O)n2c1 | inactive |
| CN(C(=O)Cn1nc(Cc2cccnc2)c2ccccc2c1=O)c1cccc(C(F)(F)F)c1 | inactive |
| CCCCC(c1nnnn1CCOC)N1CCN(CC)CC1 (configuration not stated) | inactive |
| Cc1cc(C)nc(SCC(=O)NC2CCCC2)n1 | inactive |

| Compound | Potency |
| --- | --- |
| O=c1c2sc3ccccc3c2n(Cc2cccc(F)c2)c(=O)n1CCc1ccccc1 | inconclusive [inhibitor, single point] |
| CCC(=O)OCc1cc(=O)n2nc(C3CC3)sc2n1 | inactive |
| Cc1ccc(CNC(=O)c2ccc(N3CCCC3)c(NC(=O)Nc3ccc(C)cc3)c2)cc1 | inconclusive [activator, full curve, poor fit] |
| CC(C)N1CC=C2C(C#N)=C(N)C(C#N)(C#N)[C@H](c3ccoc3)[C@H]2C1 | inconclusive [inhibitor, partial curve, poor fit] |
| Cc1cc(C)cc(NC(=O)CSc2nnc(-c3ccccc3C)o2)c1 | inconclusive [inhibitor, partial curve] |
| CCOc1ccc(N(C)C(=O)c2oc(=O)c3ccccc3c2-c2ccccc2)cc1 | inactive |
| CN(C)CC(CCC(CN(C)C)C(=O)c1ccccc1)C(=O)c1ccccc1 (configuration not stated) | inconclusive [inhibitor, single point] |
| C/C(=N\Nc1cc(C)nc(-c2ccccc2O)n1)c1ccccc1O | inconclusive [inhibitor, partial curve] |
| CC(C(=O)N1CCN(C2c3ccccc3-c3ccccc32)CC1)N1C(=O)c2ccccc2C1=O (configuration not stated) | inactive |
| CC1(C)CC(=O)C2=C(C1)NC(=S)C(C#N)C21CCCCC1 (configuration not stated) | inconclusive [inhibitor, single point] |
| O=C(Cn1nc(C(F)(F)F)c2c1CCCC2)Nc1cccc(Cl)c1 | inconclusive [inhibitor, single point] |
| COc1ccc2ccccc2c1C1CC(=O)N2CN(Cc3ccco3)CSC2=C1C#N (configuration not stated) | inconclusive [inhibitor, single point] |
| COc1ccc(C(=O)NCC(=O)OCC(=O)N2CCC(C)CC2)cc1OC | inactive |
| COc1ccccc1/C=N/NC1=NCCCCC1 | inconclusive [inhibitor, full curve, poor fit] |
| Cc1ccc(NC(=O)Cn2c(=O)n(-c3ccc(C)cc3)c(=O)c3c2cnn3C)cc1 | inactive |
| O=C(CC(=O)c1ccccc1)c1ccccc1 | inconclusive [inhibitor, full curve, poor fit] |
| Cc1cc(C)c(NC(=O)Cn2c(=O)oc3cc(S(=O)(=O)N4CCCCCC4)ccc32)c(C)c1 | inconclusive [inhibitor, single point] |
| COC(=O)c1ccc2c(=O)n(CCCCCC(=O)NCCc3ccccc3)c(=O)[nH]c2c1 | inactive |
| O=C1/C(=C\c2ccccn2)SC(=S)N1Nc1ncc(C(F)(F)F)cc1Cl | inconclusive [inhibitor, partial curve] |
| Cc1ccc(NC(=O)NC(=S)NC(=O)c2ccccc2)cc1 | inconclusive [inhibitor, partial curve] |
| COc1ccc(CCNC(=O)C(=O)NCc2cccs2)cc1OC | inactive |
| O=C(Nc1ccc(OCC(=O)N2CCOCC2)cc1)Nc1cccc2ccccc12 | inconclusive [inhibitor, single point] |
| Nc1c(C(=O)Nc2ccccc2Br)sc2nc(-c3cccs3)ccc12 | inconclusive [inhibitor, single point] |
